SMILES strings stand for the structures. Screen size: about 52,000 compounds; about 4,300 (8.3%) were called active. Cut-off read from the data, not from the text of the source: active = survival mostly below about 52% (no sharp cut-off); inactive = mostly above about 56%. Some of the results follow.

The test system of this test is DeltatarO mutant. Description: growth inhibition of S. aureus wild type versus tarO mutant, primary screen, teichoic acid synthesis inhibitors, RN4220, OD600 (AID 463173). As to conditions: OD600, 18 h, active compounds read low, screened at 18.75 µg/mL (by protocol).
With `CCCC(=O)Nc1cc(C)c(NC(=O)CCC)cn1`, the survival was inactive: 88%.

Regarding `COc1cc2c(C(=O)Nc3cc(OC)c(OC)c(OC)c3)cn(C)c(=O)c2cc1OC`, the survival was inactive: 63%.

Turning to `CCC(C)c1ccc2oc(-c3ccc(NC(=O)c4cc5ccccc5o4)cc3)nc2c1` (stereo not given), the survival is active: 46%.

For the compound `COc1ccc(C2c3cc(OC)c(OC)cc3CC(=O)N2c2ccc(C)cc2)cc1` (stereo not given), the survival is inactive: 80%.

For `CCCC(=O)Nc1nnc(S(=O)(=O)N(C)Cc2ccc(Cl)cc2)s1`, the survival is inactive: 103%.

Turning to `Cc1cccc(Cn2c(=O)n3nc(-c4ccccc4)nc3c3ccccc32)c1`, the survival was active: -16%.

Consider `CC(C)c1ccc(S(=O)(=O)c2nnn3c2nc(N2CCCC2)c2sccc23)cc1`, for which the survival was inactive: 72%.

Take `Cn1c(=O)[nH]c2cc(-c3noc(-c4ccc(Br)cc4)n3)ccc21`: the survival is inactive: 81%.

`COc1ccccc1Nc1nc(-c2ccccc2F)nc2ccccc12`: the survival was inactive: 73%.

For `Cc1cccc(-c2nn3c(=O)cc(CN4CCN(C(=O)/C=C/c5ccccc5)CC4)nc3s2)c1`, the survival is inactive: 80%.

On to `Cc1cccc(C(=O)NCC(c2ccco2)S(=O)(=O)c2cccs2)c1` (stereo not given), for which the survival was inactive: 92%.

For the compound `CCOC(=O)C1CCN(c2ncnc3c2nc2n3CCCCC2)CC1`, the survival was inactive: 87%.

For `Cc1cccc(NC(=O)c2ccc(-c3ccccc3)s2)c1`, the survival is inactive: 82%.

For the compound `COc1cccc(-c2noc(C3CCCN(S(=O)(=O)c4ccccc4F)C3)n2)c1` (stereo not given), the survival was inactive: 65%.

Turning to `CCc1ccc(NC(=O)c2cnn(-c3ccccc3)c2-n2cccc2)cc1`, the survival is active: 31%.

For the compound `CCc1cnc2c(c1SCC(=O)NCc1ccccc1Cl)c(=O)n(C)c(=O)n2C`, the survival was inactive: 88%.

As for `CCC(Oc1ccccc1)C(=O)Nc1nnc(S(=O)(=O)N(CC)CC)s1` (stereo not given), the survival is inactive: 104%.

Turning to `O=C(CC1N=C2c3ccccc3N=C(SCc3ccc(F)cc3)N2C1=O)NCc1ccc2c(c1)OCO2` (stereo not given), the survival is inactive: 67%.

As for `Cn1c2c(c3ccccc31)CCc1nonc1-2`, the survival was inactive: 96%.

Regarding `O=C(NCCN1CCN(c2cccc(Cl)c2)CC1)Nc1ccccc1`, the survival was inactive: 77%.

Consider `CCc1ccc(NC(=O)c2ccc(-c3ccccc3)s2)cc1`, for which the survival was inactive: 134%.

As to `Brc1cccc(-c2nnn3c2nc(NCc2ccc4c(c2)OCO4)c2ccccc23)c1`, the survival was inactive: 110%.

As to `O=C(NCC(c1cccnc1)N1CCc2ccccc21)c1cccc(Br)c1` (stereo not given), the survival was active: 41%.

`COc1ccc(-n2ncc(C(=O)NCc3ccco3)c2C2CCN(C(=O)OC(C)(C)C)CC2)cc1`: the survival is inactive: 83%.

Regarding `CC(C)NC(=O)C1CCC(Cn2c(=O)c3sccc3n(Cc3ccc(F)cc3)c2=O)CC1` (stereo not given), the survival is inactive: 68%.

For `COc1cc2ccccc2cc1C(=O)Nc1cccc(-c2nc3cc(C)c(C)cc3o2)c1`, the survival is active: 41%.

Turning to `COC(=O)c1c(NC(=O)c2ccc(S(=O)(=O)N3CCC(C)CC3)cc2)sc2c1CCN(C)C2`, the survival is inactive: 73%.

`Cc1ccccc1CNC(=O)c1cnc2sc(N3CCC(C)CC3)nn2c1=O`: the survival is inactive: 67%.

For `CCn1c(SCC(=O)N2CCCCC2)nnc1-c1ccc(S(=O)(=O)N2CCCC2)cc1`, the survival is inactive: 104%.

For `CN(C(=O)CSc1nnc(NC(=O)Nc2ccccc2)s1)c1ccccc1`, the survival is inactive: 67%.

In the case of `Cc1cc(C)c(NC(=O)C2CCN(c3nc4ccccc4n4cccc34)CC2)c(C)c1`, the survival was inactive: 61%.

As for `O=C(COC(=O)c1ccccc1Cl)Nc1nccs1`, the survival is inactive: 94%.

Take `CCCN(C(=O)C(C)C)c1nnc(-c2cc(OC)c(OC)c(OC)c2)s1`: the survival was inactive: 114%.

`Cc1cccc(C(=O)Nc2ccc(S(=O)(=O)N3CCC(c4nc5ccccc5s4)CC3)cc2)c1`: the survival was active: 40%.

For the compound `COCCCNC(=O)c1cc2cc(S(=O)(=O)N3CCCCC3)ccc2n1C`, the survival is inactive: 100%.

Turning to `CCC(C)(C)NC(=O)C1CCN(S(=O)(=O)c2ccc3c(c2)CCCN3C(C)=O)CC1`, the survival is inactive: 76%.

With `CNC(=S)N(Cc1cc2ccc(OC)cc2[nH]c1=O)C1CCCC1`, the survival was inactive: 108%.

In the case of `C=Cc1ccc(Cn2c(C(=O)O)c(CNCc3ccc(F)cc3)c3ccc(C)cc32)cc1`, the survival is inactive: 86%.

In the case of `Cc1cc(C)c(NC(=O)CSc2ncc3c(n2)-c2cc(Cl)ccc2N(C)S3(=O)=O)c(C)c1`, the survival is inactive: 106%.

As to `Cc1ccc(NC(=O)/C(C#N)=C/c2ccc(-c3ccc(Cl)c(C(=O)O)c3)o2)cc1C`, the survival is inactive: 70%.

For the compound `COc1ccc(Cn2c(C(=O)O)c(CNCCc3ccco3)c3ccc(OC)cc32)cc1`, the survival was inactive: 103%.

For the compound `CCOc1cccc(NC(=O)C2CC(=O)N(CC)C(=Nc3ccc(F)cc3)S2)c1` (stereo not given), the survival was active: 17%.

Regarding `O=C1CS(=O)(=O)C2(C(=O)N(Cc3ccccc3Cl)c3ccccc32)N1c1ccc(F)cc1` (stereo not given), the survival was inactive: 87%.

In the case of `N#CC1=C(N)C(C#N)(C#N)C(c2ccccc2)C2CCCC=C12` (stereo not given), the survival is inactive: 97%.

Turning to `CC(C)(C)c1ccc(/C=C/C(=O)Nc2ccc(S(N)(=O)=O)cc2)cc1`, the survival is inactive: 63%.

As to `CCN(CC)S(=O)(=O)c1ccc2c(c1)N(CC(=O)Nc1ccccc1F)C(=O)C1CCCN21` (stereo not given), the survival is inactive: 76%.

Take `COC(=O)c1c(-c2ccc(Cl)cc2)noc1N1CCN(c2cc(C)ccc2C)CC1`: the survival was inactive: 115%.

As to `COc1cccc(NC(=O)C2CCCN(S(=O)(=O)c3cn(C(C)C)cn3)C2)c1` (stereo not given), the survival is inactive: 131%.

On to `CCOc1ccc(CCNC(=O)c2cc3cccc4c3n2CCS4)cc1`, for which the survival was inactive: 94%.

Consider `CC(C)c1cccc(C(C)C)c1NC(=O)c1ccncc1`, for which the survival is inactive: 102%.

As for `COc1ccccc1N1CCN(c2ncnc3c2nnn3C)CC1`, the survival was inactive: 131%.

Regarding `Cc1ccc(C)c(NC(=O)CN2CCSc3ccc(S(=O)(=O)N4CCCC4)cc32)c1`, the survival is inactive: 60%.

In the case of `Cc1cc(SCC(=O)NCc2ccc(Cl)cc2)nc(=O)[nH]1`, the survival was inactive: 86%.

For `CCCCCn1c(=O)[nH]c2cc(C(=O)Nc3ccc(F)c(F)c3)ccc2c1=O`, the survival was inactive: 88%.

Take `N#Cc1ccc(-c2cccs2)nc1SCC(=O)Nc1cccc(C(F)(F)F)c1`: the survival is inactive: 48%.

Regarding `CCc1ccc(N2C(=O)C3C(C(=O)OC)=NN(C(C)=O)C3C2=O)cc1` (stereo not given), the survival was inactive: 75%.

`Cc1ccc(S(=O)(=O)N2CCC(C(=O)NCc3ccccc3Cl)CC2)cc1`: the survival was inactive: 74%.

As to `CCN1CCN(Cc2c(O)ccc3c(C)c(-c4ccc(OC)cc4)c(=O)oc23)CC1`, the survival is inactive: 107%.

Take `CCN(CC)CCOC(=O)c1ccc(NC(=O)c2cc3c(=O)n(CC)c4ccccc4c3s2)cc1`: the survival was inactive: 80%.

Turning to `COc1ccc(NC(=O)C2=CC(c3ccco3)=NS(=O)(=O)N2C)cc1`, the survival is inactive: 105%.

Turning to `Cc1ccccc1S(=O)(=O)Cc1ccc(C(=O)N2CCN(c3cccc(Cl)c3)CC2)o1`, the survival is active: 54%.

With `CC(NC(=O)C1CCN(S(=O)(=O)Cc2ccccc2)CC1)c1ccccc1` (stereo not given), the survival was inactive: 68%.

As for `CCCc1nc2ccccc2c(NC(=O)CN(CC)CC)c1CC`, the survival is inactive: 70%.

Turning to `Cn1c(-c2ccc(NC(=O)c3ccccc3)cc2)n[nH]c1=S`, the survival is inactive: 72%.

Turning to `Cc1cc(S(=O)(=O)N2CCN(Cc3noc(CCC(=O)N4CCCCC4)n3)CC2)ccc1F`, the survival is inactive: 89%.

`CCCc1nn2c(=O)cc(COC(=O)c3ccc(NC(=O)COc4ccc(F)cc4)cc3)nc2s1`: the survival was active: 37%.

With `CN(C)c1ccc(CNC(=O)C2CCN(c3nc4ccccc4[nH]3)CC2)cc1`, the survival was inactive: 63%.

With `COC(=O)c1cc2occc2n1Cc1nc(-c2ccccc2)oc1C`, the survival was inactive: 90%.

On to `CC(C)c1ccc(S(=O)(=O)N2CCC(n3c(C(F)(F)F)nc4cccnc43)CC2)cc1`, for which the survival was inactive: 73%.

On to `CCOC(=O)c1oc2ccc(S(=O)(=O)n3nc(-c4ccc(C)cc4)cc3N)cc2c1C`, for which the survival is inactive: 67%.

`COCCn1nnnc1CN(Cc1ccco1)Cc1cc2cc(OC)ccc2[nH]c1=O`: the survival is inactive: 97%.

Regarding `COc1ccc(NC(=O)C2CCN(S(=O)(=O)c3cccc(-c4noc(C)n4)c3)CC2)cc1OC`, the survival is inactive: 81%.

With `Cc1cc(C)nc(NC(=O)C(c2ccccc2)c2ccccc2)n1`, the survival is inactive: 115%.

For the compound `CCOCCn1ccc2c(OCC(=O)Nc3ccc(C(N)=O)cc3)cccc2c1=O`, the survival was active: 37%.

Take `Cc1ccc(C(=O)NCC(c2ccc3c(c2)OCO3)N2CCOCC2)cc1C` (stereo not given): the survival was inactive: 70%.

Consider `CCOC(=O)c1cc(S(=O)(=O)Nc2cc(OC)ccc2OC)[nH]n1`, for which the survival is inactive: 119%.

On to `O=C(CSc1cn(CC(=O)N2CCCC2)c2ccccc12)Nc1ccc(Cl)cc1`, for which the survival is inactive: 84%.

With `COc1ccc(Cl)cc1NC(=O)c1cc2c(=O)n3ccccc3nc2s1`, the survival is inactive: 75%.

As to `COc1ccc(CNc2nc(-c3ccco3)nn2S(=O)(=O)c2ccc(Cl)cc2)cc1OC`, the survival was inactive: 61%.

In the case of `Cc1cccc(NC(=O)Cn2cc(C(=O)C3CCCCC3)c3ccccc32)c1`, the survival was inactive: 123%.

In the case of `CC(C)c1ccc(-c2nnn(CC(N)=O)n2)cc1`, the survival is inactive: 85%.

For `CCOC(=O)CC(NC(=O)CCc1c(C)nc2c(-c3ccccc3)c(C)nn2c1C)c1ccc(OC(C)C)cc1` (stereo not given), the survival was inactive: 66%.

With `COc1ccc(Cn2c(CCC(=O)NCc3ccc(Cl)cc3)nc3cccnc32)cc1`, the survival is inactive: 112%.

For the compound `COc1cc2c(-c3cccc(Cl)c3)nc3c(c(C)nn3-c3ccccc3)c2cc1OC`, the survival is inactive: 75%.

Regarding `COc1cccc(CNC(=O)c2cnc3sc(N4CCCC4)nn3c2=O)c1OC`, the survival was inactive: 91%.

As for `CSc1ccc(CCNC(=O)NCc2noc3ccccc23)cc1`, the survival is inactive: 55%.

Turning to `Cc1ccc2cc(C#N)c(N3CCCN(C(=O)C4CCCCC4)CC3)nc2c1`, the survival is inactive: 98%.

Take `O=C1Nc2ccccc2Oc2cc(Oc3ccccc3)ccc21`: the survival was active: 33%.

For the compound `COc1ccc(NC(=O)c2sc3nc4c(cc3c2N)CN(Cc2ccccc2)CC4)c(OC)c1`, the survival was active: 47%.

For `COc1ccc(NC(=O)Cn2c(SCc3ccc(C)cc3)nc3cccnc32)cc1OC`, the survival was inactive: 83%.

For the origin of these results see PubChem BioAssay AID463173 (ICCB-Longwood Screening Facility, Harvard Medical School, 2010).
